In the supplement of paper PMC12067093, “Discovery and optimisation of a covalent ligand for TRIM25 and its application to targeted protein ubiquitination” (Chemical Science, 2025):
The full data set covers some 21,000 targets. This sample favours those with the largest changes.

Compound: CC1Cc2ccccc2N1C(=O)C1CCCN(C1)C(=O)CCl (mixture of isomers) [TRIM25 ligand 11 (diastereomer mixture)]
Experiment: probe-labelled cysteine peptide fold change vs DMSO (competition) (log2 fold change); higher = less target engagement (more negative = stronger competition)
Settings: THP-1, incubation time: 4 h
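Further: competitive chemoproteomic profiling in live THP-1 cells with an iodoacetamide desthiobiotin (IA-DTB) probe, comparing probe-labelled peptide intensities in compound-treated cells against DMSO-treated controls.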

Sequence of UniProt Q66K14 (Q66K14 whole entry, looked up): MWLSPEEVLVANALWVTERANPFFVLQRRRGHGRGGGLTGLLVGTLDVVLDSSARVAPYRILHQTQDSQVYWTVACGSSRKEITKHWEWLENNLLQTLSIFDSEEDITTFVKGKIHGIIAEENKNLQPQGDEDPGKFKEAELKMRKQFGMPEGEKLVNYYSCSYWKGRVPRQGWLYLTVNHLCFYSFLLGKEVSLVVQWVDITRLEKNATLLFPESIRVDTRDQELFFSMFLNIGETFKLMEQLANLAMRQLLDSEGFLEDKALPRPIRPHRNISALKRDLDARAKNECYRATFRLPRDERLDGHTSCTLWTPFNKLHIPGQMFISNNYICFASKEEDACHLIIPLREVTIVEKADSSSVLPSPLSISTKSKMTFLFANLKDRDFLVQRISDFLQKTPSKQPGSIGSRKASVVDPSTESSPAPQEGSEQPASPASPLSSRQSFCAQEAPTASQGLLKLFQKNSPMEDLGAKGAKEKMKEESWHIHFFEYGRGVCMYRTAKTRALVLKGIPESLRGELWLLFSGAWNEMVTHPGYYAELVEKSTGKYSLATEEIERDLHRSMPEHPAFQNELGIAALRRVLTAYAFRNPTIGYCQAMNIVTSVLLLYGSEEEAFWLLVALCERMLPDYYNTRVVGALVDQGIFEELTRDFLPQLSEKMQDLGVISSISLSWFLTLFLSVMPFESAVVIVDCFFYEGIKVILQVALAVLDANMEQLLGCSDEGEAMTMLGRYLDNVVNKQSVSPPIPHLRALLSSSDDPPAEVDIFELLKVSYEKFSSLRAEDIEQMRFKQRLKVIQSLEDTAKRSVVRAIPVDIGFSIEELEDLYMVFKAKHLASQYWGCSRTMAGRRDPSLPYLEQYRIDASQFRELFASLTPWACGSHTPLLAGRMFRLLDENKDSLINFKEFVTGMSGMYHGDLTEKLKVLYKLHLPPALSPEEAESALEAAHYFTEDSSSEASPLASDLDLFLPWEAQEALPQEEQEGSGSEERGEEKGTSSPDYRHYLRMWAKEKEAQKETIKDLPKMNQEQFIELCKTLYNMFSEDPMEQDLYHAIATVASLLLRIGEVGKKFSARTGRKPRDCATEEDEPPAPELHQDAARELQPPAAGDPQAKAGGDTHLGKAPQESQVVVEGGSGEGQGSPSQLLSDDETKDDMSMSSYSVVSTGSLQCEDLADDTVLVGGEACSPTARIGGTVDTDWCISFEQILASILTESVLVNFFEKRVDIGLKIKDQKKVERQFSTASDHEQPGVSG
Sequence of UniProt O00186 (O00186 whole entry, looked up): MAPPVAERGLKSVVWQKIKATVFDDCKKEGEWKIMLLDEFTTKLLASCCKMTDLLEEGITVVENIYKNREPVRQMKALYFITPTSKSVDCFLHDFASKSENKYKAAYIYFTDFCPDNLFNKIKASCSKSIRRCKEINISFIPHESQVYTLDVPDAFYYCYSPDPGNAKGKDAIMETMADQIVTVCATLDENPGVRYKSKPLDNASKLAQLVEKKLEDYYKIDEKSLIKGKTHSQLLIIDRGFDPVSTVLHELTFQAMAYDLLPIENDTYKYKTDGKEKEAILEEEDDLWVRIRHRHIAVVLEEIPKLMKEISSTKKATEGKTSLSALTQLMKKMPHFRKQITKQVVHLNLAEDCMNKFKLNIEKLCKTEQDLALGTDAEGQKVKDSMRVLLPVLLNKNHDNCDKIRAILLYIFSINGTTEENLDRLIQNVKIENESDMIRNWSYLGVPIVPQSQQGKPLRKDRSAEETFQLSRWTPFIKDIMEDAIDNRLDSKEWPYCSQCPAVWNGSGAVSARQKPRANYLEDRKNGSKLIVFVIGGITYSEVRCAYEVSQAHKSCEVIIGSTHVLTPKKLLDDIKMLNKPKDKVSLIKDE
Sequence of UniProt Q86TJ2 (Q86TJ2 whole entry, looked up): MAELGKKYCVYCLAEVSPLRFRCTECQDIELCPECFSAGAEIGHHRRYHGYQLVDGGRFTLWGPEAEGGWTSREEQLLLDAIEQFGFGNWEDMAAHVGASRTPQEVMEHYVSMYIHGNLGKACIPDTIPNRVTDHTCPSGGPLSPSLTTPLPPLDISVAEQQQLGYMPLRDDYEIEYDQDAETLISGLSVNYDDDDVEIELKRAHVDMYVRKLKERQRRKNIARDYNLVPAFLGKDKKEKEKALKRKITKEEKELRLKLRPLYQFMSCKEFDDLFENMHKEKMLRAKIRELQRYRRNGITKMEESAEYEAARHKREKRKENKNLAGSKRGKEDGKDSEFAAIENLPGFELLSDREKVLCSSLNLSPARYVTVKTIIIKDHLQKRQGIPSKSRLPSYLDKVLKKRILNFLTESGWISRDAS
Sequence of UniProt Q86TI0 (Q86TI0 whole entry, looked up): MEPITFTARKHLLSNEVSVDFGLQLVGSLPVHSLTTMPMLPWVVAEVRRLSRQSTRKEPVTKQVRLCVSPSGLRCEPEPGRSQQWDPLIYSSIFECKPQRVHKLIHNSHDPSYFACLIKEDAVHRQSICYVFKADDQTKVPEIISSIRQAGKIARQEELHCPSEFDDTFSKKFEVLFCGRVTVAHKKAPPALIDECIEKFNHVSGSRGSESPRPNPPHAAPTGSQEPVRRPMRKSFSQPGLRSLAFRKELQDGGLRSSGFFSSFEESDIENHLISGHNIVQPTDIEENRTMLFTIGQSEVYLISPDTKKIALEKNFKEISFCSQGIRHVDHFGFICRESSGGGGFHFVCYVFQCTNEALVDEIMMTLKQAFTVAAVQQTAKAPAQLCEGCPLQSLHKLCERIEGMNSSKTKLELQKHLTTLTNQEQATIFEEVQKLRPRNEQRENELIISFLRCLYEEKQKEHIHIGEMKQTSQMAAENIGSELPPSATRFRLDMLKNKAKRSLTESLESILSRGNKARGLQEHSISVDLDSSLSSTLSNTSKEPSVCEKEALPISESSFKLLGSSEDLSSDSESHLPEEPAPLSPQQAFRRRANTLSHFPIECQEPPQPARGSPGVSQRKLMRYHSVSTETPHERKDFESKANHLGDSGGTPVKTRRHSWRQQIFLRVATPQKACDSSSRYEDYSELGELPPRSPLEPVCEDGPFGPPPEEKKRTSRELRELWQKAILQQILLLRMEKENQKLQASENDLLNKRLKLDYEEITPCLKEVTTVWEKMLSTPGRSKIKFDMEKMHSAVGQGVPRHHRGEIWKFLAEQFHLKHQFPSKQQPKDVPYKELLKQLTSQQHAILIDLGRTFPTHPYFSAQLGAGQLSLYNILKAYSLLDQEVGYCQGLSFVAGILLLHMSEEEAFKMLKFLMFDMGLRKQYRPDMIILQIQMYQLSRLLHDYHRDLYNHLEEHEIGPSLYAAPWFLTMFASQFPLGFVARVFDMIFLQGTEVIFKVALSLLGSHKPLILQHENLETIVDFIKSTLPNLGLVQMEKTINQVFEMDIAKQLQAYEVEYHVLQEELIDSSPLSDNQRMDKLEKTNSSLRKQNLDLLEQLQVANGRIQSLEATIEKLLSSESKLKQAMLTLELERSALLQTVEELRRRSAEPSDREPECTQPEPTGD
Sequence of UniProt O00506 (O00506 whole entry, looked up): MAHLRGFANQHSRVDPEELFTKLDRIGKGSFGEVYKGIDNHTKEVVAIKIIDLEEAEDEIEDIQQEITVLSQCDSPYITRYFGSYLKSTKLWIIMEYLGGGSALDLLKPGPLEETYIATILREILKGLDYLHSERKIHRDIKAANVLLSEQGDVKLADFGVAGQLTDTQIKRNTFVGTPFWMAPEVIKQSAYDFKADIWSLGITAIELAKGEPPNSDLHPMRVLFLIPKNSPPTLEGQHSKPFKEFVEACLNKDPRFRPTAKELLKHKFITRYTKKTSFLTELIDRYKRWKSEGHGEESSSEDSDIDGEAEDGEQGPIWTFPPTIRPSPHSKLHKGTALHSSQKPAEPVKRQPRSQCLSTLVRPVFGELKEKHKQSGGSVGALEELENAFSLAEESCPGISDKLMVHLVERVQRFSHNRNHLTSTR
Sequence of UniProt O94901 (O94901 whole entry, looked up): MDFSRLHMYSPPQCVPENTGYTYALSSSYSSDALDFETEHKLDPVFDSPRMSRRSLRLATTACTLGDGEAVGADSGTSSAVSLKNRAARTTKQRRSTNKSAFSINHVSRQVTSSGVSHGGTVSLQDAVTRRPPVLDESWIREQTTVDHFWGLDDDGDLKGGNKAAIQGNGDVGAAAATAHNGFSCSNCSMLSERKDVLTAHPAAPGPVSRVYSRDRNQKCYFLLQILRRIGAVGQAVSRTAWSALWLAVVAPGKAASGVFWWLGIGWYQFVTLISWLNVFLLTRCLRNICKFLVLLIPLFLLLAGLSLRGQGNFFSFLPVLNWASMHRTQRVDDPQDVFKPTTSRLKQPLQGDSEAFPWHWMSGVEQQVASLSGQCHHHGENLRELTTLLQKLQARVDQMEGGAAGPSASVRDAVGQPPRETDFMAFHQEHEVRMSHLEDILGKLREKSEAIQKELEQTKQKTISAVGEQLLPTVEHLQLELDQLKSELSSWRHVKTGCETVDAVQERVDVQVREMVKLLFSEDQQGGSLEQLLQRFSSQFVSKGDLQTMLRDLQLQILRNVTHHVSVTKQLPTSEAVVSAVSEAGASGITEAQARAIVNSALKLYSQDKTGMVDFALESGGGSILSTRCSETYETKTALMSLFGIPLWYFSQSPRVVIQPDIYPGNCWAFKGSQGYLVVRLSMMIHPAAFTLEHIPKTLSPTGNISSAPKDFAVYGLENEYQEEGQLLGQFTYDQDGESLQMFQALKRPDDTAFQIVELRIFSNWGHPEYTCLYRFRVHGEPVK
Sequence of UniProt Q07955 (Q07955 whole entry, looked up): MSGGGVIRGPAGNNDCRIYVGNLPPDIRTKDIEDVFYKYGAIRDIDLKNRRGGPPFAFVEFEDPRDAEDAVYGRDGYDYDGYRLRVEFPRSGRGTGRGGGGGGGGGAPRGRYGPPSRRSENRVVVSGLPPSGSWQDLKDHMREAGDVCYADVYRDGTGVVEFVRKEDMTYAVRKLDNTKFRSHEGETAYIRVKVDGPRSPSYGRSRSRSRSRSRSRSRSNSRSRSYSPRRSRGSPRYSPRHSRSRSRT
Sequence of UniProt Q9Y5J6 (Q9Y5J6 whole entry, looked up): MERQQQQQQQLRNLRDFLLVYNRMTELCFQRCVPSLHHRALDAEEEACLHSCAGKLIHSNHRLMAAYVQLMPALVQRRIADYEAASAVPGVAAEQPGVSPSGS

Target	probe-labelled cysteine peptide fold change (10 µM)	probe-labelled cysteine peptide fold change (50 µM)
TAGLN2_P37802_63_DGTVLCELINALYPEGQAPVK (UniProt P37802)	-0.0876	-0.171
TRAPPC13_A5PLN9_32_LTKPTLFTNIPVTCEEK (UniProt A5PLN9)	-0.00439	0.0542
SRPK1_Q96SB4_455_AEIPCEDEQEQEHNGPLDNK (UniProt Q96SB4)	-0.0458	-0.0274
TBL2_Q9Y4P3_375_VHGECIANLSFDITGR (UniProt Q9Y4P3)	0.00796	-0.148
THOP1_P52888_427_YGHAACFGLQPGCLR (UniProt P52888)	0.0447	-0.0427
STXBP3_O00186_557_SCEVIIGSTHVLTPK (UniProt O00186)	0.265	0.115
TADA2B_Q86TJ2_359_VLCSSLNLSPAR (UniProt Q86TJ2)	-0.00316	0.0232
STK25_O00506_357_SQCLSTLVRPVFGELK (UniProt O00506)	0.0231	0.0985
SURF6_O75683_189_KAEEATEAQEVVEATPEGACTEPR (UniProt O75683)	-0.0126	-0.199
SUN1_O94901_657_CSETYETK (UniProt O94901)	-0.078	-0.0824
TBC1D1_Q86TI0_701_SPLEPVCEDGPFGPPPEEK (UniProt Q86TI0)	-0.0503	-0.49
TRAPPC12_Q8WVT3_160_EVPGSEAARPEQEPPVAEPVPVCTIFSQR (UniProt Q8WVT3)	-0.246	-0.647
STAM2_O75886_76_VPHVALQALTLLGACVANCGK (UniProt O75886)	-0.414	0.0225
TERF1_P54274_118_NSAEAIIHGLSSLTACQLR (UniProt P54274)	-0.0786	-0.0349
TOP1_P11387_733_ITVAWCK (UniProt P11387)	-0.0805	-0.0295
TBC1D9B_Q66K14_876_ELFASLTPWACGSHTPLLAGR (UniProt Q66K14)	-0.00548	-0.0126
TNRC18_O15417_726_ADEDCVDDR (UniProt O15417)	-0.0358	-0.102
SRSF1_Q07955_16_GPAGNNDCR (UniProt Q07955)	0.282	0.178
TIMM10B_Q9Y5J6_52_ALDAEEEACLHSCAGK (UniProt Q9Y5J6)	0.0215	0.149
TDRD7_Q8NHU6_72_SGEITCYAMACTETAR (UniProt Q8NHU6)	-0.0928	0.00492
THBS1_P07996_413_CEGSSVQTR (UniProt P07996)	0.558	0.502
TNFAIP8L3_Q5GJ75_272_INHVFNHFADVEFLSTLYSLDGDCRPNLK (UniProt Q5GJ75)	0.0412	0.145
SUPV3L1_Q8IYB8_418_FNDPNDPCK (UniProt Q8IYB8)	0.0828	0.0389
TBC1D23_Q9NUY8_31_DLEEALEAGGCDLETLR (UniProt Q9NUY8)	-0.0107	-0.0319
THUMPD1_Q9NXG2_31_CDAGGPR (UniProt Q9NXG2)	0.795	0.964
